# Source: patent publication US20080118512A1 (DELENEX THERAPEUTICS, published 2008)
# T1: human ALK epitope peptide (amino acids 391-406 of the ALK protein) (human)
# T1 construct: In the yeast two-hybrid screen it was a C-terminal fusion to LexA; also called Alk LBD peptide; Alk LBD
# T1 peptide: GRIGRPDNPFRVALEY
# B1: scFv ESBA521 (scFv)
# scFv: QSVLTQPPSVSAAPGQKVTISCSGSTSNIGDNYVSWYQQLPGTAPQLLIYDNTKRPSGIPDRFSGSKSGTSATLGITGLQTGDEADYYCATWDNDKWGVVFGGGTKLEVLGGGGGSGGGGSGGGGSSGGGS[about 100 residues not listed]DAWLDVLSDGFDYWGQGTLVTVSS
# notes: also called ESBA512
# B2: framework FW4.4 scFv (scFv)
# scFv: QSVLTQPPSVSAAPGQKVTISCSGSTSNIGDNYVSWYQQLPGTAPQLLIYDNTKRPSGIPDRFSGSKSGTSATLGITGLQTGDEADYYCGTWDSSLSGVVFGGGTKLTVLGGGGGSGGGGSGGGGSSGGGS[about 100 residues not listed]DAGIAVAGTGFDYWGQGTLVTVSS
# notes: also called framework 4.4 scFv; WT FW4.4
# B3: primary binder scFv isolated from the FW4.4 VH CDR3 library (first screening round) (scFv)
# scFv: QSVLTQPPSVSAAPGQKVTISCSGSTSNIGDNYVSWYQQLPGTAPQLLIYDNTKRPSGIPDRFSGSKSGTSATLGITGLQTGDEADYYCGTWDSSLSGVVFGGGTKLTVLGGGGGSGGGGSGGGGSSGGGS[about 100 residues not listed]DAWLDVLSDGFDYWGQGTLVTVSS
# notes: also called probably clone H5 SH 5.3
# Legend:
# [1] = biological target: T1, human ALK epitope peptide (amino acids …); assay: ELISA with Alk LBD peptide
# [2] = biological target: T1, human ALK epitope peptide (amino acids …); assay: ELISA on GST-ALK peptide
Binder,Kd [1] [nM],EC50 (read off the curve) [2] [nM],Kd [2] [nM],binding result [2]
B1,~7,~7,7.2,–
B2,–,–,–,no binding (tested: 10000 nM)
B3,–,~30,31,–
